Source: patent US12534541B2, “Anti-PTK7 antibody and uses thereof” (MABCARE THERAPEUTICS, priority 2023, dated 2026)

Experiments:
Conditions in all cases: immobilized protein
[1] = biological target: T1, murine PTK7 protein (Mus musculus, UniProt Q8BKG3); assay: Relative binding activity to murine PTK7 by ELISA
T1 construct: purchased Acrobiosystems PT7-M52H3
T1 sequence (Q8BKG3 23-1062): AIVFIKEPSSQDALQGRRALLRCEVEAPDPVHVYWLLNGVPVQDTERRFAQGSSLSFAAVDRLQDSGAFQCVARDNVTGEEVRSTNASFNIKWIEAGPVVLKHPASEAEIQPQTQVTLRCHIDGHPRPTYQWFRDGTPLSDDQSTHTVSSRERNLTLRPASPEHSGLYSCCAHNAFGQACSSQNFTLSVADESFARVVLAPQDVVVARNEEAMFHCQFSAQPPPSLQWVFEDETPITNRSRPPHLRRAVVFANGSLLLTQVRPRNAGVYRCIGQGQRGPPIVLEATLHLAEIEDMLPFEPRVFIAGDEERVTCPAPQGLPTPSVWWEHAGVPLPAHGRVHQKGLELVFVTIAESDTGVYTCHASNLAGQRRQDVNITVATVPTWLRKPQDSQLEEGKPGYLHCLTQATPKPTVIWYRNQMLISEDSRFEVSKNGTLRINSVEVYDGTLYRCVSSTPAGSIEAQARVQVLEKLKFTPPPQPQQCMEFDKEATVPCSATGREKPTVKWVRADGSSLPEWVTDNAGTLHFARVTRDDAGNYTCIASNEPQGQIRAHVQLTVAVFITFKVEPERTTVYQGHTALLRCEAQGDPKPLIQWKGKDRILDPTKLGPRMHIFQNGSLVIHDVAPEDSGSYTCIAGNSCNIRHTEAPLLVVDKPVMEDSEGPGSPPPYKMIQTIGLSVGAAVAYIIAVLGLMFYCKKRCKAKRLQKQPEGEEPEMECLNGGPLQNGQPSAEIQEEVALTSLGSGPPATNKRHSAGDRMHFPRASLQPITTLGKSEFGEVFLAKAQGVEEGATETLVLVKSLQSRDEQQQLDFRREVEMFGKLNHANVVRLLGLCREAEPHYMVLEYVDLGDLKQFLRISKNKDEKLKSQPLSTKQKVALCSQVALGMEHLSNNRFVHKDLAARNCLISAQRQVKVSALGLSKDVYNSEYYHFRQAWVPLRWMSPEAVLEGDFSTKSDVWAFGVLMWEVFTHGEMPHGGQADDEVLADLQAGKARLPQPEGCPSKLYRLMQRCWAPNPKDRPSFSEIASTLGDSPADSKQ
Procedure: (§1) Human PTK7 protein (Catalog No. PT7-H52H3, Acrobiosystems), monkey PTK7 protein (Catalog No. PT7-C52H3, Acrobiosystems), and murine PTK7 protein (Catalog No. PT7-M52H3, Acrobiosystems) were incubated at 4° C. overnight and immobilized onto a 96-well plate. The plate was then blocked by incubating at 37° C. with 1% BSA in PBS for 1 h. After blocking, the plate was washed 3 times with PBST (PBS containing 0.05% Tween 20). Serial dilutions of anti-PTK7 antibody as prepared in Example 2 of the present disclosure was prepared in a binding buffer (PBS containing 0.05% Tween20 and 0.5% BSA) and incubated with the immobilized proteins at 37° C. for 1 h. After binding, the plate was washed 3 times with PBST, incubated with peroxidase-labeled donkey anti-human IgG (Jackson ImmunoResearch) diluted at 1/15,000 in the binding buffer at 37° C. for 1 h, washed again, developed with TMB and terminated with 1M H2SO4. The absorbance at 450 nm-620 nm was measured.

[2] = test system: monkey PTK7 protein; assay: Relative binding activity to monkey PTK7 by ELISA
Procedure: as §1

[3] = biological target: T2, Human PTK7 protein (Homo sapiens, UniProt Q13308); assay: Relative binding activity to human PTK7 by ELISA
T2 construct: purchased Acrobiosystems PT7-H52H3
T2 sequence (Q13308 31-1070): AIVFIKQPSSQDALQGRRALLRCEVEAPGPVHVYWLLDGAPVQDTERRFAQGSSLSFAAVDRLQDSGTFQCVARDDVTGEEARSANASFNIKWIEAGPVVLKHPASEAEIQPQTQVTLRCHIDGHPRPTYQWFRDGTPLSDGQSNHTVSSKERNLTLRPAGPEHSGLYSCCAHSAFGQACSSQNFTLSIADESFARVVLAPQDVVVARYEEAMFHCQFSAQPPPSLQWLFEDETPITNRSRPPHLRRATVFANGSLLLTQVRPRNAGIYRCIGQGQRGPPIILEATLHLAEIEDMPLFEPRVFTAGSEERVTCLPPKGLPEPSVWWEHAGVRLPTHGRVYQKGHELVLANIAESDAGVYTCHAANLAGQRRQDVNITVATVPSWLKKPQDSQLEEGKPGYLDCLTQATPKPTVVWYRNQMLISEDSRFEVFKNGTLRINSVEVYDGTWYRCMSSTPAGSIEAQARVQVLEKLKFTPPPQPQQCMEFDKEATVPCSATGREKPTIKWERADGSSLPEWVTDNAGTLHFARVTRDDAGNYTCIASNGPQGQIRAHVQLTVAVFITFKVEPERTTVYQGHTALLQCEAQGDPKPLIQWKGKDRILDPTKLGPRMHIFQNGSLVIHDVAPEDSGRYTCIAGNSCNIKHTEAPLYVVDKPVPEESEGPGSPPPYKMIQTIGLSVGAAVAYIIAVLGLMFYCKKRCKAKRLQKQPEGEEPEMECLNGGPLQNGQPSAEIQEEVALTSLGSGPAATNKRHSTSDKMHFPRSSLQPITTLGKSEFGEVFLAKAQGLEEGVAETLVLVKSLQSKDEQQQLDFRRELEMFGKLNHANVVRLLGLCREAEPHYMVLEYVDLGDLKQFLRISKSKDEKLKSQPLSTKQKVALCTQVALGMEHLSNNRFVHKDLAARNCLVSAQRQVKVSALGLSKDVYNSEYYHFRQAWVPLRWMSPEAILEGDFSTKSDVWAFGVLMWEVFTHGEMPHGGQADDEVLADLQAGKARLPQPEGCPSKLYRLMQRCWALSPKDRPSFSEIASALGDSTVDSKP
Procedure: as §1

B1: h6M24: positive control anti-PTK7 antibody, heavy and light chains SEQ ID NOs: 26 and 27 (antibody)
heavy: QVQLVQSGPEVKKPGASVKVSCKASGYTFTDYAVHWVRQAPGKRLEWIGVISTYNDYTYNNQDFKGRVTMTRDTSASTAYMELSRLRSEDTAVYYCARGNSYFYALDYWGQGTSVTVSS[letters of human IgG1 constant region omitted]
light: EIVLTQSPATLSLSPGERATLSCRASESVDSYGKSFMHWYQQKPGQAPRLLIYRASNLESGIPARFSGSGSGTDFTLTISSLEPEDFAVYYCQQSNEDPWTFGGGTKLEIKRTVAAPSVFIFPPSDEQLKSGTASVVCLLNNFYPREAKVQWKVDNALQSGNSQESVTEQDSKDSTYSLSSTLTLSKADYEKHKVYACEVTHQGLSSPVTKSFNRGEC
cross-reaction with mouse PTK7 [1]: neither ch13 nor h6M24 antibodies cross-react
binding to monkey PTK7 protein [2]: specifically bind
binding to human PTK7 protein [3]: specifically bind
